Laboratory results published in publication PMC4336329 (PLoS ONE, 2015).
Out of some 310,000 compounds screened, about 14,000 (4.5%) showed an effect of 50% or more. The effect is printed as a negative number. Some of the results follow.

The compounds below were run against human ether-à-go-go-related gene (hERG) potassium channel (human, UniProt Q12809) (assay: primary screen, population patch clamp on CHO cells stably expressing hERG).
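Further: peak tail current of the secondary pulse compared with the same well before compound.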

human ether-à-go-go-related gene (hERG) potassium channel, sequence (Q12809 whole entry, looked up): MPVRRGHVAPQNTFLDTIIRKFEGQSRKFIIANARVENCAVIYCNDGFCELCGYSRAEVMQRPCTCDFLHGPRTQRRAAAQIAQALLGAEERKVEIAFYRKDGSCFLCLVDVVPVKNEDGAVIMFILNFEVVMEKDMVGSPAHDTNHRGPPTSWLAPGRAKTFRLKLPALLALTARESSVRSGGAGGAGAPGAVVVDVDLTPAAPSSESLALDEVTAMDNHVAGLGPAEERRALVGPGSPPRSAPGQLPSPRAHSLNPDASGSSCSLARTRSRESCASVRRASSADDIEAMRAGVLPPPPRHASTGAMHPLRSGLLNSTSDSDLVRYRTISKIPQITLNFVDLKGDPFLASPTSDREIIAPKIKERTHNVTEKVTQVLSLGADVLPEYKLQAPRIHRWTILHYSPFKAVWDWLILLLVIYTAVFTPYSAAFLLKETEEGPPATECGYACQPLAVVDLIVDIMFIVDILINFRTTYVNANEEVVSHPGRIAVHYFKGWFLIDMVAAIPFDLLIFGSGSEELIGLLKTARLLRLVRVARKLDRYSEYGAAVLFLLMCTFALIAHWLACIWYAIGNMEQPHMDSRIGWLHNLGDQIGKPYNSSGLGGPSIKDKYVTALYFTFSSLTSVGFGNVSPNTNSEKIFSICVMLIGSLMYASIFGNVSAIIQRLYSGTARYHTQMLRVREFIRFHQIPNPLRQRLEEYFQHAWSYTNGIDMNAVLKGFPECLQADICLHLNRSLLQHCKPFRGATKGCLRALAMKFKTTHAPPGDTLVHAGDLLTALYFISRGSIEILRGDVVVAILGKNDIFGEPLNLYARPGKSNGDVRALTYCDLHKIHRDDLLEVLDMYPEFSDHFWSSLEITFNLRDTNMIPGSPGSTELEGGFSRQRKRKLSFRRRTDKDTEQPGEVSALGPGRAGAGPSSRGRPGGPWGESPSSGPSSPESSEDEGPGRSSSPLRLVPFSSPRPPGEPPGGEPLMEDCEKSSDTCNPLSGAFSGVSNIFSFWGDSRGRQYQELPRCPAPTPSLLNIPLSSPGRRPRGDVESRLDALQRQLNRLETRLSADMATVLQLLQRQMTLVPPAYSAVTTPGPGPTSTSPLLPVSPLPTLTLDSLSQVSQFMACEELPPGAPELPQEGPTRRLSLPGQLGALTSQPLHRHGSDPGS

| SMILES | hERG current change (%, negative = inhibition) at 10uM [%] |
| --- | --- |
| CNC(=S)N1C2CCCC1CC(NC(=O)c1ccc(F)cc1)C2 (stereo not shown) | 6.93 |
| C/C(=N\N)c1c(-c2ccccc2)c2cc(C)ccc2[nH]c1=O | 0.204 |
| CCc1cccc(CC)c1NC(=O)c1cccc(S(=O)(=O)N2CCN(C)CC2)c1 | -4.14 |
| CN=C1SC(CC(=O)Nc2ccccc2F)C(=O)N1/N=C/c1ccc(O)c(OC)c1 (stereo not shown) | -11.1 |
| COc1cc(OC)cc(OC(=O)C2CCN(C(=O)c3ccc(Cl)cc3)CC2)c1 | -33.9 |
| CC1=C(C(=O)OC2CCCC(C)C2)C(c2ccccc2)NC(=O)N1 (stereo not shown) | -17.8 |
| Cc1cc(S(=O)(=O)N2CCOCC2)ccc1OCC(=O)NCCN1CCOCC1 | 11.3 |
| Nc1c(C(=O)NCc2ccco2)nnn1-c1ccccc1 | 2.52 |
| C=CCOc1ccc(/C(CC)=N/O)c(OC)c1 | -10.6 |
| Cc1c(C(=O)Nc2nc3ccccc3[nH]2)oc2ccc(Br)cc12 | -45.7 |
| Cc1[nH][nH]c(=O)c1N=Nc1ccc(S(N)(=O)=O)cc1 | 11.3 |
| CC(c1cc2ccccc2s1)N(O)C(N)=O (stereo not shown) | -3.66 |
| N#C/C(=C(/O)c1ccc(F)cc1)c1nc2ccccc2s1 | 24 |
| CCN(c1cccc(C)c1)S(=O)(=O)c1cc(CN2C(=O)c3cccnc3C2=O)ccc1OC | -18.8 |
| CCc1ncc(CN2CCC(C(=O)Nc3ccc(-n4nc(C)cc4C)cc3)CC2)cn1 | -10.5 |
| Cc1ccc(S(=O)(=O)CC(CN2CCOCC2)N2CCOCC2)cc1 (stereo not shown) | 6.6 |
| CN(C)S(=O)(=O)c1cccc(NC(=O)c2cc(-c3cccs3)nn2-c2ccccc2)c1 | 22.3 |
| Cc1cccc(NC(=O)Cc2noc3ccccc23)c1C | 6.8 |
| CC(C)C[C@H](NC(=O)N1CCCCCC1)C(=O)O | 5.09 |
| Cn1nc(OCc2ccccc2)ccc1=O | -4.3 |
| O=C1CCCC2=C1C1(CCCCC1)N=C(Nc1nc3ccccc3s1)N2 | 8.68 |

| SMILES | hERG current change (%, negative = inhibition) at 10uM [%] |
| --- | --- |
| CC(=O)OCCn1c(C)[n+](CCOC(C)=O)c2cc(Cl)c(Cl)cc21.[I-] | 14.7 |
| Nc1cc(-c2ccccc2)ccc1O | 22.5 |
| c1coc(CNc2c3c(nc4ncnn24)CCCC3)c1 | -27.9 |
| COc1ccc(C(CC(=O)O)NC(=O)COc2ccccc2OC)cc1OC (stereo not shown) | 8.83 |
| CC(=O)c1cnc(Nc2nc(C)c3ccc(C)cc3n2)nc1C | 4.02 |
| Cc1ccn2c(=O)cc(C)nc2c1 | 24.5 |
| CC1CCN(C(=O)Cn2nnc(-c3ccccc3)n2)CC1 | 9.31 |
| CCOC(=O)c1sc(Nc2cccc(Cl)c2)nc1C | 2.03 |
| COc1ccc(CCNC(=O)/C=C/C(=O)O)cc1OC | 12.7 |
| CCn1c(SCC(=O)c2[nH]c(C)c(C(C)=O)c2C)nnc1-c1ccccc1 | -20.2 |
| COc1cc(CCC(=O)OCC(=O)Nc2ccc(C(N)=O)cc2)cc(OC)c1OC | 4.88 |
| Cn1c(=S)[nH]c2cccnc21 | 15.3 |
| CC(=O)Nc1ccc2sc(C)nc2c1 | -1.95 |
| COc1ccccc1/C=N/NC(=S)Nc1cccnc1 | 23.3 |
| Cc1cc(C(=O)CCC(=O)N(C)CC(=O)Nc2c(Cl)cccc2Cl)c(C)s1 | -3.96 |
| Cc1ccc(NC(=O)/C=C/c2ccc3c(c2)OCO3)nc1 | -0.304 |
| N#Cc1ccc(OCC(=O)Nc2cc(S(=O)(=O)N3CCCCC3)ccc2N2CCCCC2)cc1 | -13.3 |
| O=C(NCc1ccccc1)C(=O)NCC1OCCN1C(=O)c1cccs1 (stereo not shown) | -65.3 |
| CCS(=O)(=O)N1CCN(S(=O)(=O)c2ccc3ccccc3c2)CC1 | 16.2 |
| CC1(C)CC(NC(=S)NCc2ccco2)CC(C)(C)N1 | 18.9 |
| CSc1nn(CCc2ccncc2)c(=S)s1 | 8.17 |

| SMILES | hERG current change (%, negative = inhibition) at 10uM [%] |
| --- | --- |
| Cc1c(Cl)c([N+](=O)[O-])nn1CC(=O)NCC1CCCO1 (stereo not shown) | 27 |
| CCn1c(CCNC(=O)c2ccc(OC)c(OC)c2)nc2ccccc21 | -43.9 |
| CC(OC(=O)/C=C/c1ccc2ccccc2n1)C(=O)N(C)c1ccccc1 (stereo not shown) | 6.6 |
| CC(C)NC(=O)C1(S(=O)(=O)c2ccccc2)CC=CC1 | 0.292 |
| O=C(Cc1cccc(NC(=O)C2CCCN(C(=O)C3CCCCC3)C2)c1)Nc1cccc(C(=O)N2CCCC2)c1 (stereo not shown) | -36.8 |
| COc1ccccc1-n1c(-c2ccccc2)n[nH]c1=S | 23.3 |
| CCOC(=O)c1cnc(N)nc1C(F)(F)F | -0.475 |
| Cc1ccc2c(c1)N(C(=O)CCC(=O)NCc1ccccc1)CC(C)O2 (stereo not shown) | 2.08 |
| O=C(c1ccc(-c2ccccc2)cc1)N1CCN(c2ccccn2)CC1 | -36.4 |
| CC(=O)c1ccc(Nc2cc(C)nc3ccc(C)cc23)cc1 | -74.5 |
| CCOc1ccc(NC(=O)CN(C)C(=O)c2ccc(=O)[nH]c2)cc1OCC | 5.98 |
| Br.CCCCCCC1CC(CSC(=N)N)OC1=O (stereo not shown) | -52.1 |
| CCN(C1CCCCC1)S(=O)(=O)CCNC(=O)c1ccccc1 | -12 |
| COC(=O)c1ccc[n+](CC(=O)Nc2ccc(OC(F)F)cc2)c1.[Cl-] | -26 |
| O=C(/C=C/c1ccccc1)NC(=S)NNC(=O)Cc1cccs1 | 22.5 |
| Cc1csc(NC(=O)C2CCCCC2C(=O)O)n1 (stereo not shown) | 18.7 |
| CCCn1c2ccccc2c2cnn(CC(=O)NCCCOC)c(=O)c21 | -1.43 |
| CCCCN1C(Nc2ccccc2)=NC[C@@H]1Cc1ccccc1 | -66.1 |
| O=C(Nc1cccc(Cl)c1)c1ccc(OC(=S)N2CCOCC2)cc1 | 30 |
